Assay results from paper PMC4336329 (PLoS ONE, 2015).
About 14,000 (4.5%) of roughly 310,000 compounds showed an effect of 50% or more. The effect is printed as a negative number. This is one part of the list.

biological target: human ether-à-go-go-related gene (hERG) potassium channel (human, UniProt Q12809); assay: primary screen, population patch clamp on CHO cells stably expressing hERG
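Further: peak tail current of the secondary pulse compared with the same well before compound.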

Chain of human ether-à-go-go-related gene (hERG) potassium channel (Q12809 whole entry, looked up): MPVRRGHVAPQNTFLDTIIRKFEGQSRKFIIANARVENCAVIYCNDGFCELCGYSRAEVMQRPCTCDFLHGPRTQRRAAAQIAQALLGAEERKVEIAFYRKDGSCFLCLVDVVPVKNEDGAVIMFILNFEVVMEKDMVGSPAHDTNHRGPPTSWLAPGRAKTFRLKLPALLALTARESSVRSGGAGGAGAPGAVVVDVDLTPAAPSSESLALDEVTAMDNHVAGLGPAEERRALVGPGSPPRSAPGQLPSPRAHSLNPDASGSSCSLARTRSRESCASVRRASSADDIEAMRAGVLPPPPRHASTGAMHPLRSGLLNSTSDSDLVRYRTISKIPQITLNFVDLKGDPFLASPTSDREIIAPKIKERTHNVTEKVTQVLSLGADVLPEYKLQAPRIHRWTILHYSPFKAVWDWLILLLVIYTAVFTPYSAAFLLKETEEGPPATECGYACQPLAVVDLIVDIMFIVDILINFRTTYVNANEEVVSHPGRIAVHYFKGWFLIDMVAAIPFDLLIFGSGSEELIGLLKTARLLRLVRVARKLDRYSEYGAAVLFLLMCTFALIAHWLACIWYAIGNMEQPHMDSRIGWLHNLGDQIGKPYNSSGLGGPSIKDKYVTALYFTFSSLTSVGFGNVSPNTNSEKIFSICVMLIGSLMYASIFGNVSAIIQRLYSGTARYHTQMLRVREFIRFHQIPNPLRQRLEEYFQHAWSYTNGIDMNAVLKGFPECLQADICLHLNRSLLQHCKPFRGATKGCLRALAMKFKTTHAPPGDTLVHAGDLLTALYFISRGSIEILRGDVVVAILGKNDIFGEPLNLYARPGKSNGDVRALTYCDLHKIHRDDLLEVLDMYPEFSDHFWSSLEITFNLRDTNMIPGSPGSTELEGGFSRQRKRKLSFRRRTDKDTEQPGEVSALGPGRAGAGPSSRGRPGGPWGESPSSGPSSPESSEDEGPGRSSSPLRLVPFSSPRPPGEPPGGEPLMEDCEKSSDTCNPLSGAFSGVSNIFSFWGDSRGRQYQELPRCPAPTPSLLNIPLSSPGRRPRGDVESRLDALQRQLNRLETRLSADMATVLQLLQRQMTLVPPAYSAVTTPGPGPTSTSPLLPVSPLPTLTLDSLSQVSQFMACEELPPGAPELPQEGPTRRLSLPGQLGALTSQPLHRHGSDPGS

SMILES | hERG current change (%, negative = inhibition) at 10uM
Cc1cc(N2C(=O)C(=O)/C(=C(/O)c3ccccc3)C2c2cccc(Br)c2)no1 (centres unmarked) | -3.13%
O/N=C/c1ccn(-c2ccc(Br)cc2)c1 | 30.1%
Cc1ccccc1NC(=O)CCOc1ccccc1 | 11.8%
Nc1nnc(Cc2ccc(Cl)cc2Cl)s1 | 8.94%
CCCCOc1ccc(/C=c2\sc3ncnn3c2=O)cc1 | -8.12%
CCCSc1nsc(N)n1 | -0.479%
Cc1ccc(OCC(=O)N2CCc3ccccc3C2)cc1 | -3.37%
CCn1c(SCC(=O)N/N=C/c2c[nH]c3ccccc23)nnc1-c1ccc(C)cc1 | 4.16%
Cn1c(CNC(=O)c2ccccc2F)nnc1SCC(=O)NCc1ccccc1 | 11.1%
N#Cc1c(N)sc(=S)c2c1CCCCC2 | 4.02%
CN1C(=O)CC(Sc2ccccc2C(=O)O)C1=O (centres unmarked) | -20.7%
Clc1cccc(N/N=C/c2ccc(N3CCOCC3)s2)c1 | 8.85%
Cc1ccc(-c2c(C)n([O-])c3c([n+]2=O)CCCC3)o1 | 14.1%
CCSc1nnc(NC(=O)Cn2cnc3c2c(=O)n(C)c(=O)n3C)s1 | 11.3%
COc1ccc(OCCCC(=O)NNC(=O)CCN2CCN(c3ccccc3)CC2)cc1 | 7.89%
O=C(COc1cc(O)c2c(=O)c3ccccc3oc2c1)OCc1ccccc1 | 5.22%
COCCOC(=O)c1c(C)n(C)c2ccc(OC(=O)c3cccs3)cc12 | 23.8%
COCCN(CCOC)c1nc(-c2ccc([N+](=O)[O-])cc2)nc2ccccc12 | -34.3%
OC(CN1CCN(c2ccccc2)CC1)c1ccc2c(c1)CCN2 (centres unmarked) | -22.2%
COc1ccc(CNC(=O)c2noc(C(C)C)c2[N+](=O)[O-])cc1 | 3.4%
C/C(=N\NC(=O)CN1CCN(S(=O)(=O)c2ccc(C)cc2)CC1)c1ccncc1 | -77.1%
O=C(Cc1ccccc1)NNS(=O)(=O)c1ccccc1[N+](=O)[O-] | 15.5%
COc1cc(Cc2cc(N)nc(N)n2)cc(OC)c1OC | 18.4%

SMILES | hERG current change (%, negative = inhibition) at 10uM
Cc1ccc(NC2=CC(=O)OC(C)C2)cc1 (centres unmarked) | 10.3%
CCOc1ccc(S(=O)(=O)N2CCCCC2)cc1NC(=O)c1c(CC)noc1C | 11.8%
O=C(CCCN1C(=O)CCC1=O)Nc1cccc(C(F)(F)F)c1 | -0.677%
OCc1n[nH]c(CO)n1 | -26.6%
O=C(O)c1cnn2c1NC(c1ccc(F)cc1)CC2C(F)(F)F (centres unmarked) | -0.771%
COC(=O)c1cc(=O)n(CCc2ccc(OC)cc2)c(=Nc2ccc(F)c(Cl)c2)s1 | -1.4%
CCOP(=O)(OCC)C(NC(=O)c1ccccc1)=C(Cl)Cl | -4.88%
COc1cccc(OC)c1C1=NC(C)(C)CO1 | 17.8%
O=C(COC(=O)CNC(=O)c1ccc(Cl)cc1)Nc1ncc(C(F)(F)F)cc1Cl | -31.8%
O=C(Nc1nc2ccccc2[nH]1)c1cc2ccccc2o1 | 3.98%
O=[N+]([O-])c1ccc(CN2CCSCC2)cc1 | 15.5%
Cn1c(=O)n(Cc2ccccc2Br)c2ccccc21 | -10.3%
COc1ccc(CCC(C)NCC(C)c2ccccc2)cc1 (centres unmarked) | -48.3%
Br.Cc1nnc2n1N=C(c1ccccc1)CS2 | 7.6%
O=C(Nc1ccc2ncccc2c1)Nc1ccc2ncccc2c1 | 17.4%
O=C1/C(=C\c2cccnc2)CN(Cc2ccccc2)C/C1=C\c1cccnc1 | -29.4%
O=C(NC1CC1)C1=C[C@@H](c2ccc(Br)cc2)C[C@@H](OCc2ccc(CO)cc2)O1 | -56.4%
COc1ccc(S(=O)(=O)N(Cc2cccnc2)Cc2cc3ccccc3[nH]c2=O)cc1 | -18.6%
C=CCN(c1ccccc1)S(=O)(=O)c1cccc(C(=O)Nc2ccncc2)c1 | -36.1%
Cc1ccccc1C(=O)NCCCn1ccnc1 | 18.3%
CC(C)(C)c1ccc(/C=N/Nc2cccc(C(=O)O)c2)cc1 | 34%
CN(C)C(=O)N1CCNCC1.Cl | 12.8%
CC1CC(=O)Nc2ccccc2N1C(=O)Nc1ccc(F)cc1 (centres unmarked) | 12.1%

SMILES | hERG current change (%, negative = inhibition) at 10uM
Cc1cc(C)n(-c2cc(N3CCN(S(=O)(=O)c4ccc5ccccc5c4)CC3)ccc2[N+](=O)[O-])n1 | -1.13%
COCCN(C(=O)c1ccco1)c1nnc(-c2ccc(OC)c(OC)c2)s1 | -0.243%
CCc1ccc(C(=O)c2cncc(Br)c2)cc1 | -18.3%
Cn1cc2cc(NC(N)=S)ccc2n1 | 5.63%
S=C1NC2=C(CCC/C2=C\c2ccccc2)C(c2ccccc2)N1 (centres unmarked) | 15.4%
COc1ccc(S(=O)(=O)Oc2ccc3ccccc3c2)cc1 | -5.54%
O=C(Nc1ccccc1C(F)(F)F)N1CCC(N2CCCCC2)CC1 | 1.05%
COc1ccc(NC(=O)N2CCN(c3ccc([N+](=O)[O-])cc3)CC2)cc1OC | -73.2%
Cc1nn(C(C)C(=O)Nc2ccc3c(c2)OCO3)c(C)c1[N+](=O)[O-] (centres unmarked) | -20.6%
Cc1ccc(Cl)c(OCC(=O)Nc2cccnc2)c1 | 8.07%
Cc1cc(CC(C)C)n(-c2nc3ccccc3c(=O)n2OCC(N)=O)n1 | -6.58%
COc1cc(/C=C/C(=O)O)cc(S(=O)(=O)NCC2CCCO2)c1OC (centres unmarked) | 5.22%
COc1ccc(NC(=O)COC(=O)CCCOc2ccc(Cl)cc2Cl)cc1Cl | 14.3%
CC(C)=CCN1CCN(CCC2=C(C)CCCC2(C)C)CC1CCO (centres unmarked) | -47.4%
COc1cccc(-n2c(Cc3cc(=O)[nH]c(=O)[nH]3)nnc2SCC(=O)NC2CCCC2)c1 | 8.82%
O=C(c1ccncc1)N1CCN(S(=O)(=O)c2cc(C(F)(F)F)cc(C(F)(F)F)c2)CC1 | -21.6%
CN(C)c1cc(N/N=C/c2ccccc2C(F)(F)F)nc(N(C)C)n1 | 2.18%
COc1cc(NC(=O)COC(=O)CO/N=C(\C)c2ccc3c(c2)OCO3)cc(OC)c1 | 14.6%
O=C(NCc1ccncc1)c1nc(-c2ccc(C(F)(F)F)cc2)no1 | -23%
C=CCn1cc(C(=O)OC)c(=O)c2cc(S(=O)(=O)N3CCC(C)CC3)ccc21 | -39%
CCCC(=O)C1=C(O)C(c2cccc(Oc3ccccc3)c2)CCC1=O (centres unmarked) | -7.79%
CC(=O)Nc1ccc(OC(=O)N2CCCCC2)cc1 | -1.39%
O=C(Nc1ccc(-c2nnn(CC(=O)N3CCN(C(=O)c4ccco4)CC3)n2)cc1)c1ccc(F)cc1 | 3.09%

SMILES | hERG current change (%, negative = inhibition) at 10uM
Cc1cccc(CSC2=NCCN2C(=O)c2ccc(Br)o2)c1 | -4.26%
COC(=O)C(C)(C)NC(=O)c1cccs1 | 5.47%
CC1CCC(N2CCN(S(C)(=O)=O)CC2)CC1.O=C(O)C(=O)O (centres unmarked) | 13.2%
CCCCCCCCC(=O)Nc1cc(C)ccc1OC | 1.01%
COc1ccc(NC(=O)COC(=O)CNC(=O)c2cc(OC)c(OC)c(OC)c2)cc1 | -13%
COc1ccccc1NC(=O)COC(=O)c1cc(C)nc2ccccc12 | 10.6%
NC(=O)C1CCCN(CCc2ccccc2)C1 (centres unmarked) | 3.16%
CS(=O)(=O)O.S=C=Nc1cccc(C2(N3CCCCC3)CCCCC2)c1 | -6.4%
CCc1ccc(NS(=O)(=O)c2ccc3c(c2)CCN3C(=O)CCC(=O)O)cc1 | -7.19%
CCCn1nnnc1NCc1cccc(OC)c1OCC | 1.32%
Cn1c(=O)[nH]c(=O)c2c1nc(SCCN1CCOCC1)n2CCCc1ccccc1 | -46.9%
Cc1ccc(CNC(=O)C2CNc3cc(C)ccc3O2)cc1 (centres unmarked) | -9.14%
CC(C)C[C@H](NC(=O)c1[nH]cnc1C(=O)N[C@@H](C)C(=O)OC(C)(C)C)C(=O)OCc1ccccc1 | 6.75%
COc1ccc(S(=O)(=O)N2CCC(CN3C(=O)c4cccc5cccc(c45)C3=O)CC2)cc1 | 7.22%
COc1ccc(NS(=O)(=O)c2ccc3c(c2)CCO3)cc1 | 3.31%
O=C(COC(=O)c1ccc(O)cc1O)Nc1ccc2ccccc2c1 | 8.28%
CC1(c2ccc3ccccc3c2)NC(=O)N(CC(=O)NCc2cccs2)C1=O (centres unmarked) | -0.455%
CC(=O)c1cccc(-c2ccc3c(=O)[nH]c(Nc4ccccc4)cc3c2)c1 | 0.596%
CC(=O)C1=C(NC(=O)c2ccc(F)cc2)CC2C1C2(C)C (centres unmarked) | 1.95%
CC1CC(C)CN(c2ccc([N+](=O)[O-])cc2-c2nn[nH]n2)C1 (centres unmarked) | -0.617%
Cc1ccc2c(c1)C1CN(C)CCC1N2C(=O)c1cccnc1Cl.Cl (centres unmarked) | 1.59%
CCCOc1ccc2ccccc2c1/C=N/n1cnnc1 | -14.7%
CCN(CC)CCOC(=O)c1ccc(NC(=O)C(C)NC(=O)C23CC4CC(CC(C4)C2)C3)cc1 (centres unmarked) | -4.41%
